Test results as given in publication PMC4336329 (PLoS ONE, 2015).
Hit rate of the full screen: of about 310,000 compounds, about 2,200 (0.71%) showed an effect of 50% or more. Effects have a minus sign here. This is one part of the list.

target: human ether-à-go-go-related gene (hERG) potassium channel (human, UniProt Q12809); test: primary screen, population patch clamp on CHO cells stably expressing hERG
Sequence (Q12809 whole entry, looked up): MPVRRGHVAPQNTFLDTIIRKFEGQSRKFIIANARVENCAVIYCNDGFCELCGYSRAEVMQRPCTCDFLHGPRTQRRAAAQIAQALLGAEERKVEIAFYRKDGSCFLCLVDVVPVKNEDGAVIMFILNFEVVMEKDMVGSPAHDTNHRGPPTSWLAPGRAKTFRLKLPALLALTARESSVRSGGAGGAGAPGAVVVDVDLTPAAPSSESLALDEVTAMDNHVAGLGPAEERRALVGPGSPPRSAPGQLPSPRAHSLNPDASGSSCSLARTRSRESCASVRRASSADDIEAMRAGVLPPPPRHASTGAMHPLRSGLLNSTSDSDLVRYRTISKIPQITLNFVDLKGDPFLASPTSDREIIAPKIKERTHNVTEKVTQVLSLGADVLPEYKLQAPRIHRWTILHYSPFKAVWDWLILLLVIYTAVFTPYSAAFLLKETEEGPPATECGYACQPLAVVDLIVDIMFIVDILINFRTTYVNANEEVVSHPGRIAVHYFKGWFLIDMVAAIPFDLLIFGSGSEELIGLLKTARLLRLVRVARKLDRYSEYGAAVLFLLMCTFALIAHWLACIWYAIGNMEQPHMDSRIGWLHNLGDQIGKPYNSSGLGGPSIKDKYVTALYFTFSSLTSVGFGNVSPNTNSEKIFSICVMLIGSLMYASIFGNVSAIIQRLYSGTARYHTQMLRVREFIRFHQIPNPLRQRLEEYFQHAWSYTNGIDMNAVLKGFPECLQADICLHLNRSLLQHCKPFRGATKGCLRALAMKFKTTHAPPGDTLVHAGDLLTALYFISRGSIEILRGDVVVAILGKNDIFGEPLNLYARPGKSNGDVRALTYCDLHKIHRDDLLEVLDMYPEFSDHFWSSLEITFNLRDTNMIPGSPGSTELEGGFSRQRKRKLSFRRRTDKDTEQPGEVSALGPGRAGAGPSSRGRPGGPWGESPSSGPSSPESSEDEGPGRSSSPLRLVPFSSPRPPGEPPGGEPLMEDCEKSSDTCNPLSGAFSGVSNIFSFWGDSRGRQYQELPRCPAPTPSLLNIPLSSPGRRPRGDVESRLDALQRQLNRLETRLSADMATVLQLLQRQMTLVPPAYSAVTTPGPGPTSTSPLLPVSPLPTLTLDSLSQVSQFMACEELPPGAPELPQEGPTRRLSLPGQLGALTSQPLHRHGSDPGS

Compound	hERG current change (%, negative = inhibition) at 1uM [%]
N=Cc1c(O)n(-c2cccc(Cl)c2)c(=O)[nH]c1=O	-6.05
CC(C)(C)[C@@H]1C=C(C(=O)N2CCN(Cc3ccc4c(c3)OCO4)CC2)O[C@H](OCc2ccc(CO)cc2)C1	-2.59
CCOC(=O)c1c(C)[nH]c(C2=NNC(=Nc3cccc(Cl)c3)SC2)c1C	12.7
O=C(NCC(c1cccs1)N1CCOCC1)c1ccc(Cl)nc1 (centres unmarked)	1.79
CCCS(=O)(=O)N1CCC(Cc2ccc(OC)cc2)(C(=O)OCC)CC1	8.92
COc1ccc(NC(=O)Cn2c(=O)n(-c3ccccc3)c(=O)c3sccc32)c(OC)c1	10.1
O=C(CN1C(=O)C2C3C=CC(C3)C2C1=O)N1CC=C(c2ccccc2)CC1 (centres unmarked)	3.53
Cc1cc(C)nc(NCC(O)CNc2ccccc2Cl)n1 (centres unmarked)	13
O=C1CCC(C(=O)N2CCCC(Nc3ccc(F)cc3)C2)=NN1 (centres unmarked)	5.07
COc1ccc2nc(/C(C#N)=C\c3ccc(Oc4ccc([N+](=O)[O-])cn4)cc3)[nH]c2c1	-11.3
O=C(CSc1ccc(-c2ccccn2)nn1)N1CCCCC1	-5.84
COc1ccc(NC(=O)CSc2nc3ccccc3nc2N2CCCC2)cc1Cl	-8.71
COc1ccc(NC2(c3ccc(Cl)cc3)C(=O)c3ccccc3C2=O)cc1	-1.18
O=C(Nc1ccc2nc3n(c(=O)c2c1)CCCC3)c1cccnc1Cl	14
O=C(O)c1sc2cc(C(F)(F)F)cnc2c1-c1ccccn1	18.6
Cc1cc(C)n(-c2cccc(Cl)c2)c(=O)c1C#N	25.1
Br.O=C(O)c1cscn1	11.3
CCOCCCn1c(SCc2nc3ccccc3s2)nc2ccccc2c1=O	10.2
O=C(O)c1ccc(OS(=O)(=O)c2cccc(C(F)(F)F)c2)cc1	8.16
Cc1nc2c(c(=O)[nH]1)C(c1ccc([N+](=O)[O-])cc1)c1c(c3ccccc3oc1=O)O2 (centres unmarked)	1.19
Cc1ccc(C(=O)OC(C)C(=O)c2cc(C)c(C)cc2C)o1 (centres unmarked)	6.31
COc1ccc(S(=O)(=O)n2cnc3ccccc32)cc1OC	16.4
COc1ccc(C)cc1S(=O)(=O)N1CCN(S(=O)(=O)c2cc(C)ccc2OC)CC1	7.04

Compound	hERG current change (%, negative = inhibition) at 1uM [%]
COc1ccc(OCC2NCCc3cc(OC)c(OC)cc32)cc1 (centres unmarked)	2.34
CCOC(=O)c1sc(=S)n(-c2ccc(C)cc2)c1N	12.2
CCCn1c(N)c(C(=O)CSc2nnc(C3CC3)n2-c2ccccc2)c(=O)[nH]c1=O	0.363
COCCN(C(=O)CSCC(=O)Nc1ccc(C)cc1)c1c(N)n(CC(C)C)c(=O)[nH]c1=O	11.6
O=C1c2[nH]nc(-c3ccccc3O)c2C(c2cccc(Cl)c2)N1Cc1ccco1 (centres unmarked)	1.09
CC12CCC(=O)C=C1CCC1C2CCC2(C)C1CCC2(O)C(=O)CO (centres unmarked)	8.16
CCn1nc(CCC(=O)O)c2ccccc2c1=O	8.96
O=S(=O)(c1ccccc1)N1N=C(c2cccs2)CC1c1ccc(F)cc1 (centres unmarked)	5.6
Cc1cc(C)nc(Oc2ccc([N+](=O)[O-])cc2)n1	21.8
N#C/C(=C(/O)COC(=O)c1ccc2c(c1)OCCO2)c1nc2ccccc2[nH]1	10.4
COc1ccc(S(=O)(=O)NNC(=O)C(=O)NNc2ccccn2)cc1	6.48
Cc1nnc(SCC(=O)NCc2ccc3c(c2)OCO3)s1	17.3
N#CCSc1nc2ccccc2c(=O)n1CCCC(=O)NCc1ccco1	2.78
Cc1ccnc(SC2CC(=O)N(c3ccc(Cl)cc3)C2=O)n1 (centres unmarked)	19.2
COC(=O)N/N=C/c1cccc([N+](=O)[O-])c1	13.1
O=C(O)CC1(CC(=O)Nc2cc(F)ccc2Cl)CCCCC1	2.97
O=C(NCC1OCCc2ccccc21)c1cc(COc2c(F)cccc2F)on1 (centres unmarked)	2.9
COCCn1c(=O)c2cc3c(=O)n(CCOC)c(=O)c3cc2c1=O	5.45
Cc1oc(-c2ccccc2F)nc1CS(=O)(=O)CC(=O)N1CCOCC1	15.8
CC1CN(c2ccc(S(=O)(=O)N3CCOCC3)cn2)CC(C)O1 (centres unmarked)	17.3
CCCCn1c(N)c(N(CCOC)C(=O)C2CCN(S(=O)(=O)c3ccc(C)cc3)CC2)c(=O)[nH]c1=O	9.38
COc1ccccc1OCC(=O)Nc1ccccc1C(=O)N1CCCCC1	14.3
Cc1ccc(NC2Sc3ccccc3NC2=O)cc1 (centres unmarked)	8.68

Compound	hERG current change (%, negative = inhibition) at 1uM [%]
CC1CCCC(C)N1C(=O)COC(=O)Cc1c[nH]c2ccccc12 (centres unmarked)	14.5
CCOC(=O)CNC(=O)C1CCCc2c1[nH]c1ccc(Cl)cc21 (centres unmarked)	10.8
CCCCn1c(N)c(N(CC(C)C)C(=O)CCCSc2nncs2)c(=O)[nH]c1=O	9.44
O=C(Nc1sc2c(c1C(=O)N1CCOCC1)CCCCC2)c1cccnc1	11.4
CCCn1c(-c2cccs2)nc2ccccc21	-4.48
CCn1c(=O)[nH]c2cc(C(=O)Nc3cc(C)cc(C)c3)ccc2c1=O	13
C=CCn1c(O)c(C(CC)=NCCCO)c(=O)[nH]c1=O	7.51
O=C(CCC1CCCC1)Nc1cc(C(F)(F)F)ccc1N1CCOCC1	11.4
COCCCNC(=O)CCCn1c(=O)c2ccccc2n(CC(=O)Nc2c(C)cccc2C)c1=O	19.3
CCN(CC(=O)NCc1ccc(Cl)cc1)C(=O)c1ccc(S(=O)(=O)N(C)C)cc1	2.21
COc1cc(=O)[nH]c(SC(C)C(=O)Nc2nc3c(s2)CCCC3)n1 (centres unmarked)	17.6
O=C(O)c1ccccc1C(=O)Nc1n[nH]c(=S)s1	13.6
O=[N+]([O-])c1cc(Cl)cc(/C=N\Nc2ccccn2)c1O	11
O=C1C2C3C=CC(C3)C2C(=O)N1Cc1ccc(CN2C(=O)C3C4C=CC(C4)C3C2=O)cc1 (centres unmarked)	-1.38
Cc1[nH]nc2c1C(c1ccc(F)cc1)C1=C(CC(C)(C)CC1=O)N2 (centres unmarked)	9.66
COC(=O)[C@H](C)NC(=O)Nc1cc(OC)ccc1OC	1.76
COc1ccc(S(=O)(=O)Nc2ccccc2C)cc1	11.3
COC(=O)c1cn(N(C)c2ncc(C(F)(F)F)cc2Cl)c(=O)c2ccccc12	10.3
COc1ccc(OC)c(NC(=O)Nc2cccc(Cn3cccn3)c2)c1	-3.71
CN(C)Cc1c(-c2ccc(Cl)cc2)nc2ccccn12	16.7
Cc1cc(C(=O)NC2CCN(Cc3ccccc3)CC2)n[nH]1	9.06
COc1ccc(OCc2cc(C(=O)N3CCN(CC(=O)N(C)C)CC3)no2)c(Cl)c1	5.1
Cc1ccnc(Nc2nc3ccccc3o2)n1	4.58

Compound	hERG current change (%, negative = inhibition) at 1uM [%]
Cc1nc2ccccc2c(=O)n1/N=C/c1c(O)ccc2oc3c(c12)CCCC3	8.14
CCOc1ncccc1C(=O)NCc1cccc(OC)c1	10.6
O=C(Nc1nc(-c2cccs2)cs1)c1cccc(S(=O)(=O)N2CCCCC2)c1	8.2
COc1ccc(OC)c(-c2csc(N3CCC(c4ccccc4)CC3)n2)c1	12.3
O=C(NCc1ccco1)c1ccc(Cl)nc1	10.8
COc1ccc(CN2C(=O)CN(C3CCCCCC3)C(=O)C2c2ccc(OC)c(OC)c2)cc1 (centres unmarked)	-6.87
CC(=O)c1ccc(N2CCN(C(=S)Nc3ccc(Cl)c(Cl)c3)CC2)cc1	18.3
CCOC(=O)C(C)Oc1cccc2c(=O)n(CC(=O)NCc3ccc(F)cc3)ccc12 (centres unmarked)	5.51
C=CCn1c(Cc2cccs2)nnc1SCC(=O)c1ccc2ccccc2c1	3.18
Cc1cccc(NC(=O)CN2C(=O)NC(Cc3ccccc3)C2=O)c1 (centres unmarked)	7.75
CSc1ncc(CN2CCCC(C(=O)Nc3ccc(-c4ccco4)cc3)C2)cn1 (centres unmarked)	16
O=C(CCC1CCCCC1)Nc1c2c(nn1-c1ccc(F)cc1)CS(=O)(=O)C2	-12.5
O=C1c2ccccc2S(=O)(=O)c2cc(C(=O)N(c3ccccn3)c3ccccn3)ccc21	13.9
CCOC(=O)c1ccc(N2N=C(C)/C(=C/C=C/c3ccco3)C2=O)cc1	-4.65
O=C(Nc1ccccc1Cl)c1ccc(S(=O)(=O)NCC2CCCO2)cc1 (centres unmarked)	-7.62
CC1(C)C(=O)OC(c2ccc([N+](=O)[O-])cc2)C(C)(C)C1=O (centres unmarked)	17
COc1ccc(OC)c(S(=O)(=O)NCCCc2ccccc2)c1	15
CC(=O)Nc1cccc(C(=O)Nc2cccnc2)c1	12
CC(C)c1nnc(NC(=O)COc2ccccc2[N+](=O)[O-])s1	0.183
CCOc1cccc(-c2nnc3sc(-c4ccco4)nn23)c1	12.1
